Results from PubChem BioAssay AID1347165 (National Center for Advancing Translational Sciences (NCATS), 2019).
Hit rate of the full screen: of about 220,000 compounds, about 5,700 (2.6%) were called active. This list was built around the results that the source calls inconclusive (neither active nor inactive); the mix of calls is not that of the screen. The call rests on the fitted dose curve; in most records, active means well fitted inhibition curve with a large enough effect; inconclusive means small, poorly fitted or top-dose-only effect; inactive means no such curve, though single readings can be large or run the other way. Where the call is inconclusive, the potency comes from a doubtful curve fit.

Target: Lysine-specific demethylase 5B (Homo sapiens) (UniProt Q9UGL1)
UniProt Q9UGL1, sequence (Q9UGL1 whole entry, looked up): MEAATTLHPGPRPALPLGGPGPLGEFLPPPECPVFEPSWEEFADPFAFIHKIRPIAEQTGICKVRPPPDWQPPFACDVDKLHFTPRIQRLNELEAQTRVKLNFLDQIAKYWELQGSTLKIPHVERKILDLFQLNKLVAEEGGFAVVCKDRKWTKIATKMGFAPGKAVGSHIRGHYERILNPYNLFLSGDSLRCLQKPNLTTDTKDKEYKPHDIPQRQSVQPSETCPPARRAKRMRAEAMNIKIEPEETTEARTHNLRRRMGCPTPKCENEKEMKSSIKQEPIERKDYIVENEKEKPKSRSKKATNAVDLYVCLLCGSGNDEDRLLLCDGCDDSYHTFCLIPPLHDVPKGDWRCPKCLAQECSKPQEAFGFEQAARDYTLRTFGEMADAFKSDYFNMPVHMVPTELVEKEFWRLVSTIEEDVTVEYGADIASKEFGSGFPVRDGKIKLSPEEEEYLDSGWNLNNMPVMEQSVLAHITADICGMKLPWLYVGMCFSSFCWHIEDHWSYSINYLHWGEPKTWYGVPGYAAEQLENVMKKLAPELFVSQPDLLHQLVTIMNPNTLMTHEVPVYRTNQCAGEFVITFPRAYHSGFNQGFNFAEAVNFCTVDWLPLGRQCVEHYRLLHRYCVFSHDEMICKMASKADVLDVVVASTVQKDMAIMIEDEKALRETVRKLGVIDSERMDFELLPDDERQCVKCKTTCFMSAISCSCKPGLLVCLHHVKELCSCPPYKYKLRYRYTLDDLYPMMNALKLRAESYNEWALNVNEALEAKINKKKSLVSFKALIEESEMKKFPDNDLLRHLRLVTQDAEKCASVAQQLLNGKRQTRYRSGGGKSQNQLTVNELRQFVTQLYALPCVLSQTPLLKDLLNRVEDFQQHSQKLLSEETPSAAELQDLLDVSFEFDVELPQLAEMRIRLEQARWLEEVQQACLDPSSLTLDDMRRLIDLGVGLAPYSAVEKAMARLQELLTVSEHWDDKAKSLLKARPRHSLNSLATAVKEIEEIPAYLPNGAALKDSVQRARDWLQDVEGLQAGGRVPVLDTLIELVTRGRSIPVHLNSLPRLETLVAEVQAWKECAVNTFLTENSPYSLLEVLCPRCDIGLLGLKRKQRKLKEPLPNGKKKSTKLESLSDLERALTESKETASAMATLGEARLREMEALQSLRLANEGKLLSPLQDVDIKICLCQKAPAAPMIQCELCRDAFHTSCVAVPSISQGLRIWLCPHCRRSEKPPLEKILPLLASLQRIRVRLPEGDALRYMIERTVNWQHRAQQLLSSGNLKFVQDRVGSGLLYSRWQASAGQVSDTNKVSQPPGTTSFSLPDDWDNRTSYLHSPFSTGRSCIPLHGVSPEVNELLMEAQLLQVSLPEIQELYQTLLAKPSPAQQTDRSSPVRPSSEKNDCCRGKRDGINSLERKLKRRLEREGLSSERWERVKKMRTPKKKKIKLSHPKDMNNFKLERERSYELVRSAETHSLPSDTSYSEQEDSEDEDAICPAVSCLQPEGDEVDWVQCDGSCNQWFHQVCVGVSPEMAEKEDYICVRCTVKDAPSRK
Experiment: Primary screen for KDM5B Histone Demethylases FDH-coupled qHTS; further: nearly all actives have a fitted effect of over 70% in size; on activity change, negative = inhibition: 0% is about no effect
Settings: FDH-coupled NADH fluorescence (FDH is formaldehyde dehydrogenase); activity change, negative = inhibition: at 57.7 µM (top of the series) unless noted
Method in brief: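 Compound dilutions met 200 nM (final) KDM5BΔAP for 10 min at room temperature before substrate addition. The substrate mix held 12.5 µM H3K4me3 with cofactors 25 µM α-ketoglutarate and 50 µM Fe²⁺. NADH signal gain over 30 min defined activity.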
Potency means the concentration at half of the fitted maximal effect; tags describe the fitted curve by direction and shape.

| Structure (SMILES) | Potency | activity change, negative = inhibition |
| --- | --- | --- |
| CCOc1ccc(NC(=O)N2CC=C(c3c[nH]c4ccccc34)CC2)cc1 | inconclusive: 22.4 µM [inhibitor, partial curve, poor fit] | – |
| O=c1c(-c2ccccc2)nnc2sc(-c3ccc(F)c(Cl)c3)nn12 | – | inactive: 12.2% |
| COc1ccc(-n2c(=O)c3c4c(sc3n(Cc3ccccc3)c2=O)CN(C(C)=O)CC4)cc1OC | – | inactive: -12.1% |
| O=C(NC1CCCN(c2cc(-c3ccccc3)[nH]n2)C1)c1ccccc1Br (stereo unspecified) | inconclusive: 10 µM [inhibitor, partial curve] | – |
| COc1ccc(-c2nc(C3CC(=O)N(c4ccc(F)c(Cl)c4)C3)no2)c(OC)c1 (stereo unspecified) | inconclusive: 31.6 µM [inhibitor, single point] | – |
| O=C(/C=C/c1cccc(O)c1)c1cccc(O)c1 | inconclusive: 39.8 µM [inhibitor, single point] | – |
| Cc1noc2c(-c3ccnn3C)cc(-c3ccc(F)cc3)nc12 | – | inactive: -28.4% [at 86.2 µM] |
| CC1(C)CC(NC(=S)NCCc2ccccc2)CC(C)(C)N1 | – | inactive: 3.23% |
| CCOC(=O)COc1ccc2c(C)c(C)c(=O)oc2c1C | inconclusive: 2 µM [inhibitor, full curve, poor fit] | – |
| COc1ccc(C2(C(=O)N3CCN(c4ccccn4)CC3)CCOCC2)cc1 | active: 79.4 µM | – |
| Cc1ccc2[nH]c3c(=O)n(CC(=O)N(C)c4cc(Cl)ccc4C)ncc3c2c1 | inconclusive: 5.62 µM [inhibitor, partial curve, poor fit] | – |
| O=C(c1ccc2c(c1)N(Cc1cccc(Cl)c1)C(=O)c1ccccc1S2(=O)=O)N1CCCCC1 | – | inconclusive: -31.4% [inhibitor] |
| Cc1cccc(OCC2(CNCc3c(C)noc3C)C[C@@H](O)[C@@H](O)C2)n1 (stereo partly specified) | inconclusive: 56.2 µM [inhibitor, single point] | – |
| COc1ccc(-c2oc3ncn4nc(-c5ccccc5Br)nc4c3c2-c2ccc(OC)cc2)cc1 | inconclusive: 35.5 µM [inhibitor, single point] | – |
| CN1CCN(C(=O)CC[C@H]2CNC(=O)[C@@H]3[C@@H](CCN3Cc3ncc[nH]3)N2C)CC1 | – | inactive: -29.1% [at 86.2 µM] |
| COc1ccc(-c2cc3c(=O)n(CCNC(=O)c4ccco4)ccn3n2)cc1 | inconclusive: 25.1 µM [inhibitor, partial curve, poor fit] | – |
| CC(C(=O)NCCN1CCN(C)CC1)C1CCN(C(=O)c2cc3ccccc3[nH]2)CC1 (stereo unspecified) | inconclusive: 5.01 µM [inhibitor, full curve, poor fit] | – |
| CCCc1nnc(NC(=O)C2(c3ccc(Cl)cc3)CCC2)s1 | – | inactive: -10.9% |
| COc1cccc(CSC2=NS(=O)(=O)c3ccccc3N2Cc2ccccc2)c1 | – | inactive: 11.2% |
| CCN1c2cc(C(=O)NCc3ccccc3F)ccc2C(=O)N2CCCCCC21 (stereo unspecified) | inconclusive: 22.4 µM [inhibitor, partial curve, poor fit] | – |
| Cc1ccc(C)c(N2CCN(C(=O)CN3CCSc4ccc(S(=O)(=O)N(C)C)cc43)CC2)c1 | inconclusive: 35.5 µM [inhibitor, partial curve, poor fit] | – |

| Structure (SMILES) | Potency | activity change, negative = inhibition |
| --- | --- | --- |
| O=c1c2cccnc2n(Cc2ccccc2F)c(=O)n1Cc1ccccc1Cl | inconclusive: 39.8 µM [inhibitor, single point] | – |
| CC(=O)N1CCC2(CC1)Oc1ccccc1C1CC(c3cccc(OC(F)F)c3)=NN12 (stereo unspecified) | inconclusive: 39.8 µM [inhibitor, single point] | – |
| Cc1cc(-c2nc(-c3c(C)noc3C)cc3c2cc(C)n3CCN(C)C)ccn1 | active: 35.5 µM | – |
| C/C(CC(=O)Nc1cccc2c1CCCC2)=N\NC(=O)c1ccc(Cl)cc1Cl | – | inactive: 17.6% |
| CN(C)Cc1cccc(-c2cc(-c3ccncc3)c3cncn3c2)c1 | active: 28.2 µM | – |
| COC(=O)c1ccc(Cl)cc1NC(=O)N1CCCn2nc(C)cc21 | inconclusive: 17.8 µM [inhibitor, single point] | – |
| N#Cc1cc2c(nc1N1CCN(C(C(=O)O)c3c[nH]c4cc(CO)ccc34)CC1)CCCC2 (stereo unspecified) | inconclusive: 28.2 µM [inhibitor, partial curve, poor fit] | – |
| COC(=O)[C@@H](NC(=O)Nc1ccc2oc(-c3cccnc3)nc2c1)C(C)C | inconclusive: 17.8 µM [inhibitor, partial curve, poor fit] | – |
| COc1ccc2nc(C)c(C(=O)Nc3cc(C)ccn3)cc2c1 | inconclusive: 31.6 µM [inhibitor, single point] | – |
| COC(=O)c1ccc(COC(=O)c2c3c(nc4ccccc24)CCC3)o1 | inconclusive: 11.2 µM [inhibitor, partial curve, poor fit] | – |
| COc1cccc(CN2C(=O)OC3(CCN(Cc4ccncc4)CC3)C2(C)c2cccnc2)c1 (stereo unspecified) | inconclusive: 28.2 µM [inhibitor, single point] | – |
| C=CCOc1ccc(CN(C)CC(=O)NC(=O)NCc2cccs2)cc1 | – | inactive: -11% |
| CN1CCCN(CC(=O)N2C[C@H](NS(C)(=O)=O)[C@@H](C3CC3)C2)CC1 | inconclusive: 22.4 µM [inhibitor, single point] | – |
| O=C(Nc1ccncc1)c1cc(-c2cccs2)nc2ccccc12 | inconclusive: 10 µM [inhibitor, partial curve, poor fit] | – |
| CNCc1cccn1C | inconclusive: 39.8 µM [inhibitor, partial curve, poor fit] | – |
| CCOC(=O)c1c(N)n(-c2ccc(Cl)c(Cl)c2)c2nc3ccccc3nc12 | inconclusive: 1.78 µM [inhibitor, full curve, poor fit] | – |
| COc1ccc(Cl)cc1-c1nc(C2CC(=O)N(C3CCCCC3)C2)no1 (stereo unspecified) | inconclusive: 15.8 µM [inhibitor, partial curve] | – |
| CCS(=O)(=O)N1C[C@@H]2CN(Cc3ncc[nH]3)C[C@]2(C(=O)O)C1 | inconclusive: 4.47 µM [inhibitor, full curve, poor fit] | – |
| O=C(Nc1ccc(OC(F)(F)F)cc1)c1cc(=O)c2ccccc2o1 | – | inactive: 4.01% |
| O=C(NCC(F)(F)F)C1CCCN1c1nc2ncccc2o1 (stereo unspecified) | inconclusive: 31.6 µM [inhibitor, partial curve, poor fit] | – |
